In all, about 370,000 compounds went through this assay and about 1,100 (0.3%) were called active. This list was built around the results that the source calls inconclusive (neither active nor inactive); the mix of calls is not that of the screen. Calls follow the shape of the dose curve; as a rule, active = well fitted activation curve with a large enough effect; inconclusive = small, poorly fitted or top-dose-only effect; inactive = flat fitted curve, though single readings scatter. Where the call is inconclusive, the potency comes from a doubtful curve fit.
target: Relaxin receptor 1 (Homo sapiens) (UniProt Q9HBX9); assay: qHTS Assay for Agonists of the Relaxin Receptor RXFP1; settings: HEK293T-RXFP1 cAMP TR-FRET, 30 min; series mostly up to 57.5 µM; also: nearly all actives have a fitted effect of over 60% in size
How it was run: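 cAMP rise read by TR-FRET after 30 min, 37C compound exposure (up to 58 uM) in RXFP1-transfected HEK293 cells with Ro 20174 present. EC50 from Hill-equation fits, with 29 nM porcine relaxin as 100% and buffer as basal.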
Potency is read from the fitted curve at half-maximal effect; tags tell the direction and shape of the fitted curve.

Sequence of UniProt Q9HBX9 (Q9HBX9 whole entry, looked up): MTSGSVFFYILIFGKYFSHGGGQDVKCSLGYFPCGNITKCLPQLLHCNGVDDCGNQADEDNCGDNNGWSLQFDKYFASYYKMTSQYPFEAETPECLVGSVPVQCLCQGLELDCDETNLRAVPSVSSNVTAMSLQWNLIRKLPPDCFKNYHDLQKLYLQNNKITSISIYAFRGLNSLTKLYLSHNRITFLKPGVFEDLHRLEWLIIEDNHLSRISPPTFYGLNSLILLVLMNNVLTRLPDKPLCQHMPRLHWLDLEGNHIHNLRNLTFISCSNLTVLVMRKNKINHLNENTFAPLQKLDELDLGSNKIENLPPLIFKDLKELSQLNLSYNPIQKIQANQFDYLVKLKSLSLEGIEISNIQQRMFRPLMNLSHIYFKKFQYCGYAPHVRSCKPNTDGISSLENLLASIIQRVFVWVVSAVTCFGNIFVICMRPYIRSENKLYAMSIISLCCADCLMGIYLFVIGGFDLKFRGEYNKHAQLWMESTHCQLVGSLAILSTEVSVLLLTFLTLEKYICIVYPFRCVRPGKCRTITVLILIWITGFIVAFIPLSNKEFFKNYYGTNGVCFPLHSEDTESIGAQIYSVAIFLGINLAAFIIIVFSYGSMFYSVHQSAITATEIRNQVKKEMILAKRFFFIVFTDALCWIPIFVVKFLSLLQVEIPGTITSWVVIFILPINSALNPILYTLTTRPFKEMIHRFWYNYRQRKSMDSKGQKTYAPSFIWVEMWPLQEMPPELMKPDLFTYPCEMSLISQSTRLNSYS

Potency, inconclusive:
Cc1ccc(Cc2nc3ccccc3nc2SCC(=O)N2CCN(c3ccc(F)cc3)CC2)cc1 20 µM [activator, partial curve]
CNc1nc2c(-c3ccc(Cl)cc3)nnn2c2ccccc12 15.8 µM [activator, partial curve]
O=c1[nH]c(SCc2ccccc2F)nc2ccccc12 25.1 µM [activator, single point]
Cn1c(=O)c2c(ncn2CCOc2ccc(F)cc2)n(C)c1=O 15.8 µM [activator, partial curve]
CN(C)c1ccc(CNC(=O)c2ccccc2NC(=O)c2nsc3ccccc23)cc1 39.8 µM [activator, single point]
CC(=O)c1sc(NC(=O)CCCOc2ccc(Cl)cc2)nc1C 35.5 µM [activator, single point]
COc1ccc(Cl)cc1NC(=O)Cn1cc(C(=O)c2ccc(C)cc2)c(=O)c2ccc(C)nc21 35.5 µM [activator, single point]
CCSc1cnn(-c2ccccc2)c(=O)c1SCC 25.1 µM [activator, partial curve]
Cc1cccc(N2C(=O)CS(=O)(=O)C23C(=O)N(Cc2c(F)cccc2Cl)c2ccccc23)c1 (configuration not stated) 35.5 µM [activator, single point]
Cc1ccc2c(=O)c(C(=O)c3ccc(F)cc3)cn(CC(=O)NC3CCCCC3)c2n1 31.6 µM [activator, single point]
CCCc1nc(SCC(=O)NC2CCCC2)c2ccccc2n1 15.8 µM [activator, partial curve]
O=S(=O)(c1ccccc1)c1nnn2c1nc(NCc1ccccc1)c1cc(Cl)ccc12 31.6 µM [activator, single point]
Cc1c(-c2cccc(NC(=O)c3ccco3)c2)nc2ncccn12 22.4 µM [activator, partial curve]
O=c1c2c(-c3ccc([N+](=O)[O-])cc3)csc2nc2n1CCC2 15.8 µM [activator, partial curve]
Cc1cc(SCC(=O)NC2(C#N)CCCCC2)nc2c(C)cccc12 25.1 µM [activator, partial curve]
O=C(COc1ccc(F)cc1)OCc1cc(=O)n2nc(-c3cccs3)sc2n1 35.5 µM [activator, single point]
COc1cc(NS(=O)(=O)c2c(C)nc3sc(C)c(C)n3c2=O)cc(OC)c1 25.1 µM [activator, single point]
CCOc1ccc(C(=O)c2oc3ccccc3c2NC(=O)c2cc(-c3ccc(C)cc3)on2)cc1 39.8 µM [activator, single point]
COc1cc2c(cc1OC)n(CC(=O)NC1CCCCCC1)n1c(C)cc(=O)nc21 39.8 µM [activator, single point]
CCCCCNC(=O)C1CCC(Cn2c(=O)c3sccc3n(CC(=O)NCc3cccc(OC)c3OC)c2=O)CC1 (configuration not stated) 28.2 µM [activator, partial curve]
Cc1c(C(=O)Nc2ccccc2)sc2nc(-c3cc4cc(Cl)ccc4oc3=O)[nH]c(=O)c12 28.2 µM [activator, single point]
Cc1cccc(C)c1NC(=O)C(NS(=O)(=O)c1cccs1)c1ccccc1 (configuration not stated) 35.5 µM [activator, single point]
COc1cccc(N2CCN(C(=O)c3cc4c(s3)-c3ccccc3OC4)CC2)c1 25.1 µM [activator, partial curve]
Cc1cccn2c(=O)c3cc(C(=O)N4COCC4(C)C)sc3nc12 35.5 µM [activator, single point]
CCN(Cc1nc2ccccc2c(=O)[nH]1)Cc1nc2ccsc2c(=O)[nH]1 25.1 µM [activator, partial curve]
N#C/C(=C\c1c(N2CCC(C(N)=O)CC2)nc2ccccn2c1=O)C(=O)NCc1ccco1 25.1 µM [activator, partial curve]
COc1ccccc1C(=O)Nc1ccc(C(=O)OCc2cc(=O)n3nc(C4CC4)sc3n2)cc1 31.6 µM [activator, single point]
Cc1cccn2c(=O)c3cc(C#N)c(=O)n(-c4nnc(SCc5ccc(Cl)cc5)s4)c3nc12 22.4 µM [activator, partial curve]
O=C(Nc1ccc(F)cc1)C1CCCN(S(=O)(=O)c2ccc3[nH]c(=O)ccc3c2)C1 (configuration not stated) 35.5 µM [activator, single point]
CCOc1ccc(CCNC(=O)Cn2ccc3ccccc3c2=O)cc1OCC 39.8 µM [activator, single point]

Potency, inactive:
Cc1cc(C)nc(N/N=C/c2ccccc2)n1
CCOC(=O)c1sc(NC(C)=O)c(C(=O)OCC)c1C
COc1ccc(C2CC(=O)N3CN(c4ccccc4F)CSC3=C2C#N)cc1OC (configuration not stated)
COCc1c(C(=O)NCc2ccccc2CN2CCCC2)oc2ccccc12
C[N+]1(CC(=O)NNc2c3ccccc3nc3ccccc23)CCOCC1
Cc1cn([C@@H](CCCCNC(=O)OC(C)(C)C)C(=O)NCCCCCCCCCCC(=O)N2CCN(C(=O)OC(C)(C)C)CC2)nn1
CCCC(=O)OCc1cnc(C)c2oc(=O)c(C(=O)Nc3cccc(C(F)(F)F)c3)cc12
O=C1S/C(=C\C=C\c2ccco2)C(=O)N1c1ccccc1
O=C(Cn1c(C(F)(F)F)nc2ccccc21)Nc1ccccc1N1CCOCC1
COc1ccc(NC(=O)c2ccc3c(c2)NC(=O)CS3)cc1S(=O)(=O)Nc1ccc(Br)cc1
CCOC(=O)c1nc(NCc2ccc(Cl)cc2)c2c(C)noc2n1

Potency, active:
CC(C)OC(=O)c1c(NC(=O)C2c3ccccc3Oc3ccccc32)sc2c1CCCC2 22.4 µM

Source: PubChem BioAssay AID2676 (National Center for Advancing Translational Sciences (NCATS), 2010)
